Data from paper PMC4336329 (PLoS ONE, 2015).
Screen size: about 310,000 compounds; about 2,200 (0.71%) showed an effect of 50% or more. The effect is printed as a negative number. Some of the results follow.

What follows are compounds tested against human ether-à-go-go-related gene (hERG) potassium channel (human, UniProt Q12809) (assay: primary screen, population patch clamp on CHO cells stably expressing hERG).
Chain of human ether-à-go-go-related gene (hERG) potassium channel (Q12809 whole entry, looked up): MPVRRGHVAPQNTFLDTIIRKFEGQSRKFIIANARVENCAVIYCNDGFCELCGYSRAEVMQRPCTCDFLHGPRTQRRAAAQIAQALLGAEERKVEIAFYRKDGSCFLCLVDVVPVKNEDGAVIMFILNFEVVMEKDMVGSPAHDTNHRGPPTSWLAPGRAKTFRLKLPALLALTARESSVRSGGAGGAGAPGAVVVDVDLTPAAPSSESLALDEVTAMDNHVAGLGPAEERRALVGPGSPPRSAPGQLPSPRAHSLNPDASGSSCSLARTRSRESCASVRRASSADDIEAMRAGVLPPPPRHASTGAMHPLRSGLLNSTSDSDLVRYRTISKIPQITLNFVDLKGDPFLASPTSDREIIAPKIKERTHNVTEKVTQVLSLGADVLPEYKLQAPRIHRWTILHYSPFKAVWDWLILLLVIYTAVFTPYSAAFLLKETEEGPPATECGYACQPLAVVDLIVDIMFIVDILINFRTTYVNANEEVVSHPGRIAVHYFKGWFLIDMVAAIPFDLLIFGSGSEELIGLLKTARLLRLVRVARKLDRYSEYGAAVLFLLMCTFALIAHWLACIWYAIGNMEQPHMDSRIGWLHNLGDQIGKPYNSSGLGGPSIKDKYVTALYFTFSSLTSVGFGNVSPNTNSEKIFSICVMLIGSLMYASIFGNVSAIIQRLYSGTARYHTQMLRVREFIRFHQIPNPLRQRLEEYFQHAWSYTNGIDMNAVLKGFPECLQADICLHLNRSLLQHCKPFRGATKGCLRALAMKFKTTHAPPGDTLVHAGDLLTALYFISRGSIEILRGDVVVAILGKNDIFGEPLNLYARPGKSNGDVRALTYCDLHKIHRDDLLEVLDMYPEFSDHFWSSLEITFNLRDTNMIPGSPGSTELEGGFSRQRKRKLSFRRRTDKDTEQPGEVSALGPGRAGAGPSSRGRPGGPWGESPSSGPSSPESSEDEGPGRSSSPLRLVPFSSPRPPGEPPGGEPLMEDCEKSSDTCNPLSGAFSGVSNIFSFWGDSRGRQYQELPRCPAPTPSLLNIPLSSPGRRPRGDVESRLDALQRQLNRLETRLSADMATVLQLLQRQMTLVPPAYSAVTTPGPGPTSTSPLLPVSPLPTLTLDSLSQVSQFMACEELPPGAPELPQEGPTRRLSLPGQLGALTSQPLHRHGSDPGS

Compound | hERG current change (%, negative = inhibition) at 1uM [%]
O=C(Cn1c(=O)[nH]c2ccccc2c1=O)Nc1ccc2c(c1)OCO2 | 9.69
COc1ccc(S(=O)(=O)N(C)CC(=O)N2CCN(c3ccc(F)cc3)CC2)cc1OC | -16.3
CCN(CC)CCN1C(=O)c2oc3ccccc3c(=O)c2C1c1ccccc1 (stereo not drawn) | 2.78
COc1ccc(Nc2nc3cc(C)ccc3cc2C#N)cc1 | -7.91
COc1ccccc1OCCC(=O)OCC(=O)NCc1ccccc1 | 9.77
CCOc1cc(C=O)cc(Br)c1OCC(N)=O | 11.6
O=C(c1ccco1)N1CCN(CC(O)COc2ccc(Br)cc2)CC1 (stereo not drawn) | -42.7
CCOc1ccc(-c2nc[nH]c2[N+](=O)[O-])cc1 | 21.9
CCCCc1nc(Cl)c(CO)n1Cc1ccc(-c2ccccc2-c2nn[n-]n2)cc1.[K+] | 6.14
CCOCCCNc1nc2c(C)cccn2c(=O)c1/C=C1\SC(=S)N(CC(C)C)C1=O | 17.6
CCOc1ccc(CCNC(=O)c2ccc3nc(CC)c(CC)nc3c2)cc1 | 10.9
CCOC(=O)CSc1nnc(Cn2nnc(-c3ccccc3)n2)n1CC | -2.87
CCOC(=O)c1c(NC(=O)CSc2nc3ccccc3o2)sc(C)c1C | 17.6
C=CCOc1cccc(C(=O)N2CCC(CCC(=O)NC3CC3)CC2)c1 | 12.6
CC(C)c1ccc(CNC(=O)C(=O)Nc2nccs2)cc1 | 19.3
Cc1ccc(S(=O)(=O)CCc2nc3ccccc3[nH]2)cc1C | 6.31
COc1ccccc1CNC(=O)COC(=O)[C@H](Cc1c[nH]c2ccccc12)NC(=O)c1cccs1 | 7.77
COc1ccc(NC(=O)CSc2nc3ccc(OC)cc3[nH]2)cc1 | 1.09
COc1ccccc1-c1sc2ccccc2c1-c1ccc2c(c1)OCCO2 | 7.93
CCOC(=O)C(CCOc1cccc(CC)c1)C(=O)OCC | 13.6
CCOC(=O)C1(CCCc2ccccc2)CCN(C(=O)Cn2nc(C)nc2C)CC1 | -3.12
CCCc1nc2ccc(NC(C)=O)cc2c(=O)n1Cc1ccccc1Cl | -2.32
COc1ccc(CNc2ccc(S(=O)(=O)N3CCN(C)CC3)cn2)cc1OC | 7.33

Compound | hERG current change (%, negative = inhibition) at 1uM [%]
Cn1cc(SCC(=O)N2CCCc3ccccc32)c2ccccc21 | 9.83
CC1(C(=O)NCc2ccccn2)C=CCN1C(=O)c1ccccc1 (stereo not drawn) | 13.3
CCN1C(=O)c2ccccc2S(=O)c2ccc(C(=O)N3CCN(C(=O)c4ccco4)CC3)cc21 (stereo not drawn) | 1.12
O=C(Oc1ccc(-c2nccc(-c3ccccn3)n2)cc1)c1cccc(C(F)(F)F)c1 | 5.53
Cc1cccc(-c2nc(CSCC(=O)N3CCN(Cc4ccc5c(c4)OCO5)CC3)c(C)o2)c1 | 15
Cc1c(NC(=O)c2ccc(NC(=O)C3CC3)cc2)cccc1C(=O)O | 17.9
O=c1[nH]c(=O)n(CC2CCCO2)c(O)c1/C=C1\C=Nc2ccccc21 (stereo not drawn) [22416389] | 7.72
O=C(N/N=C/C(Br)=C/c1ccccc1)C(O)c1ccccc1 (stereo not drawn) | 12.8
CCN1CCN(CCCNC(=O)c2ccc3c(=O)n(CCc4ccccc4)c(=O)[nH]c3c2)CC1 | 9.9
Cc1cccc(C)c1NC(=O)CC(NCCc1ccccc1)C(=O)O (stereo not drawn) | 2.63
COCCCNC(=O)COc1ccc(Br)cc1Cl | 9.49
CCOc1ccc(NC(=O)CCN2C(=O)C3CCCCC3C2=O)cc1OCC (stereo not drawn) | 13.4
COc1cccc2cc(C(=O)NCCc3ccccc3)c(=O)oc12 | 21.2
O=C(CN1C(=O)C(c2ccc(F)cc2)=NC12CCCC2)Nc1ccc(F)cc1 | -4.81
CCN1C(=NCCc2c[nH]c3ccccc23)N[C@@H](c2ccccc2)[C@H](C(=O)OC)[C@H]1C | 8.43
COc1cccc(C2c3c(oc4ccc(F)cc4c3=O)C(=O)N2CCCN2CCOCC2)c1 (stereo not drawn) | -1.49
COc1ccc(NC(=O)CCc2nc(-c3ccc(C)cc3)no2)c(OC)c1 | 7.12
CCC1(C)Cc2c(sc3nnn(CC(=O)Nc4ccccc4C)c(=O)c23)CO1 (stereo not drawn) | 2.32
CCOc1ccccc1NC(=O)C1C2CCC3C(CCC21)C3(Cl)Cl (stereo not drawn) | 11.8
CC(=O)NC12CC3CC(C1)CC(C(=O)N1CCN(S(=O)(=O)c4cccc(F)c4)CC1)(C3)C2 | 0.29
COc1ccc(C(=O)N2CCNC(=O)C2CC(=O)Nc2cccc(Cl)c2Cl)cc1 (stereo not drawn) | 1.63
O=C(CN1C(=O)NC2(CCCC2)C1=O)Nc1ccccc1N1CCCC1 | 10.9
